According to the supplement of paper PMC8285479:
Values joined by “and” are separate entries in the source; they are usually repeats but may differ in a detail not shown here. Identical values can stand only once. Counter-ions that a name gives are not always drawn. ± gives the standard deviation of the averaged measurements. In all, about 1,900 compounds were measured (“normalised cell viability (NPI; 0 = phenylarsine oxide control, 1 = DMSO control)”: median about 1, lowest 2% from about 0.039 on). The list shows a part of the results.

Test system: NCI-H1944
Assay: normalised cell viability (NPI; 0 = phenylarsine oxide control, 1 = DMSO control) (fraction of DMSO control); NCI-H1944 is a non-small cell lung cancer line; higher = more viable cells (less compound toxicity)
Details: 6 days
[1] = glucocorticoid arm: hydrocortisone 2.75 uM co-treatment, compound 1 µM
[2] = glucocorticoid arm: hydrocortisone 2.75 uM co-treatment, compound 5 µM
[3] = glucocorticoid arm: hydrocortisone 2.75 uM pre-treated 2 days and continued, compound 1 µM
[4] = glucocorticoid arm: hydrocortisone 2.75 uM pre-treated 2 days and continued, compound 5 µM
[5] = glucocorticoid arm: vehicle, compound 1 µM
[6] = glucocorticoid arm: vehicle, compound 5 µM
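Also: CTB read-out in 384-well plates, mean of triplicate wells, normalised per plate against 1 µM phenylarsine oxide and 0.1% DMSO, compounds added 24 h after seeding.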

SMILES | normalised cell viability [1] | normalised cell viability [2] | normalised cell viability [3] | normalised cell viability [4] | normalised cell viability [5] | normalised cell viability [6]
CNC(=O)c1cccc(-c2ccc3c(N4CCOC[C@@H]4C)nc(N4CCOC[C@@H]4C)nc3n2)c1 | 0.451 ± 0.04 | 0.325 ± 0.0085 | 0.6123 ± 0.0021 | 0.521 ± 0.016 | 0.3017 ± 0.0021 | 0.189 ± 0.0066
CCc1cc(Nc2nccc(-c3c(-c4ccc(OC)c(C(=O)Nc5c(F)cccc5F)c4)nc4ccccn34)n2)c(OC)cc1N1CCC(N2CCN(S(C)(=O)=O)CC2)CC1 | 0.95 ± 0.012 | 0.94 ± 0.042 | 0.9597 ± 0.0021 | 0.97 ± 0.021 | 1.003 ± 0.0064 | 0.956 ± 0.049
Nc1ccn([C@H]2CC[C@@H](CO)O2)c(=O)n1 [2',3'-dideoxycytidine] | 1.01 ± 0.014 | 0.962 ± 0.017 | 1.002 ± 0.0068 | 0.994 ± 0.017 | 1.013 ± 0.0058 | 0.9997 ± 0.0093
CN1CCC(=C2c3ccccc3CCc3cccnc32)CC1 [Azatadine dimaleate] | 1.01 ± 0.014 | 1.033 ± 0.0058 | 1.01 ± 0.016 | 1.04 ± 0.03 | 1.01 ± 0.01 | 1.007 ± 0.0058
Nc1nc2ccc(OC(F)(F)F)cc2s1 [Riluzole] | 0.971 ± 0.018 | 0.981 ± 0.01 | 0.854 ± 0.22 | 1 ± 0.013 | 0.9727 ± 0.0015 | 0.976 ± 0.007
COc1ccc2c(c1)c(CC(=O)O)c(C)n2C(=O)c1ccc(Cl)cc1 [Indomethacin] | 0.9967 ± 0.0029 | 1.01 ± 0.045 | 1.007 ± 0.0058 | 1.05 ± 0.075 | 0.988 ± 0.0036 | 0.9957 ± 0.0038
CNC(=O)c1cc(Oc2ccc(NC(=O)Nc3cc(C(C)(C)C)nn3-c3ccc4ncccc4c3)c(F)c2)ccn1 [DCC-2036 (Rebastinib)] | 0.9777 ± 0.009 | 1.027 ± 0.0058 | 0.996 ± 0.013 | 0.961 ± 0.053 | 0.986 ± 0.0092 | 1.02 ± 0.01
O=C(O)c1cc(=O)cc(C(=O)O)[nH]1 [Chelidamic acid] | 1.002 ± 0.0076 | 1 ± 0.019 | 0.997 ± 0.012 | 1.01 ± 0.019 | 0.996 ± 0.012 | 0.9957 ± 0.0067
CN1CCc2c(cc(O)c(O)c2Cl)C(c2cccc(Cl)c2)C1 (stereo not given) | 1.006 ± 0.0063 | 1.03 ± 0.03 | 1.01 ± 0.039 | 1.017 ± 0.0058 | 1 | 1.013 ± 0.0058
C[C@]1(O)C[C@@H](c2nc(-c3ccc4ccc(-c5ccccc5)nc4c3)c3c(N)nccn32)C1 [Linsitinib (OSI-906)] | 0.676 ± 0.025 | 0.579 ± 0.053 | 0.762 ± 0.013 | 0.714 ± 0.028 | 1.01 ± 0.011 | 1.007 ± 0.0058
O=C(C1CCCCC1)N1CC(=O)N2CCc3ccccc3C2C1 (stereo not given) [Praziquantel] | 1.002 ± 0.0072 | 0.978 ± 0.016 | 1.01 ± 0.02 | 1 ± 0.016 | 0.987 ± 0.0053 | 1 ± 0.014
C(=C\c1ccccc1)/CN1CCN(C(c2ccccc2)c2ccccc2)CC1 [Cinnarizine] | 1.01 ± 0.011 | 1.02 | 1.01 ± 0.015 | 1.015 ± 0.0071 | 0.998 ± 0.0035 | 1.017 ± 0.0058
O=C(Nc1ccccc1-c1cn2c(CN3CCNCC3)csc2n1)c1cnc2ccccc2n1 | 0.983 ± 0.016 | 1.06 ± 0.029 | 0.964 ± 0.016 | 1.01 ± 0.025 | 0.997 ± 0.014 | 0.977 ± 0.034
COc1ccc2c(c1OC)C(=O)O[C@@H]2[C@H]1c2c(cc3c(c2OC)OCO3)CCN1C [Noscapine hydrchloride] | 1.01 ± 0.01 | 1.01 ± 0.031 | 1.01 ± 0.016 | 1 ± 0.019 | 1.017 ± 0.0058 | 1.03 ± 0.011
CCCCCCCCCCCCCCCC(=O)OC(CC(=O)O)C[N+](C)(C)C (racemic) [Palmitoyl-DL-Carnitine chloride] | 1.02 ± 0.011 | 0.975 ± 0.014 | 1.013 ± 0.0058 | 0.863 ± 0.28 | 1.007 ± 0.0058 | 1.02 ± 0.02
CC[C@@H]1SC2(CCN(C)CC2)NC1=O | 1.02 | 1.01 ± 0.011 | 1.03 ± 0.029 | 1.02 ± 0.011 | 1.013 ± 0.0058 | 1.01 ± 0.012
C/C=C1\C(=O)C[C@H]2[C@@H]3CCC4=CC(=O)CC[C@]4(C)[C@H]3CC[C@]12C [(Z)-Guggulsterone] | 0.9933 ± 0.0015 | 0.98 ± 0.031 | 0.994 ± 0.02 | 0.964 ± 0.029 | 0.9953 ± 0.0035 | 0.9887 ± 0.0091
CN(C)CC(=O)Nc1ccc2[nH]c(=O)c3ccccc3c2c1 |  | 1.04 and 1.03 |  |  |  | 
N#C/C(=C\c1ccc(-c2cc(Cl)ccc2Cl)o1)C(=O)Nc1cccc2ncccc12 | 0.971 ± 0.01 | 0.978 ± 0.035 | 0.984 ± 0.018 | 0.991 ± 0.014 | 0.9887 ± 0.0078 | 0.989 ± 0.012
CC(C)(C)NCC(O)COc1cccc2c1CCC(=O)N2 (stereo not given) [Carteolol HCl] | 1.01 ± 0.021 | 0.986 ± 0.012 | 1.02 ± 0.017 | 0.977 ± 0.019 | 1.007 ± 0.0058 | 1.013 ± 0.0058
CNC(=O)c1cc(Oc2ccc(NC(=O)Nc3ccc(Cl)c(C(F)(F)F)c3)c(F)c2)ccn1 [Regorafenib (BAY 73-4506)] | 0.883 ± 0.019 | 0.797 ± 0.038 | 0.88 ± 0.0036 | 0.848 ± 0.015 | 0.9853 ± 0.0067 | 0.994 ± 0.014
CNC(=O)c1cc(Oc2ccc(NC(=O)Nc3ccc(Cl)c(C(F)(F)F)c3)c(F)c2)ccn1 [Regorafenib; BAY 73-4506(Regorafenib)] | 0.907 ± 0.013 | 0.635 ± 0.017 | 0.945 ± 0.011 | 0.73 ± 0.056 | 0.545 ± 0.057 | 0.817 ± 0.043
CC(C)C[C@H](NC(=O)[C@H](O)[C@H](N)Cc1ccccc1)C(=O)O [Epibestatin hydrochloride] | 1.003 ± 0.0064 | 0.9953 ± 0.004 | 0.9977 ± 0.004 | 0.9947 ± 0.005 | 0.9957 ± 0.0067 | 1.007 ± 0.0058
CN(C)C(=O)C(CCN1CCC(O)(c2ccc(Cl)cc2)CC1)(c1ccccc1)c1ccccc1 [Loperamide HCl] | 1.02 ± 0.026 | 0.893 ± 0.035 | 1.047 ± 0.0058 | 0.984 ± 0.012 | 1.017 ± 0.0058 | 0.919 ± 0.0099
CN(C)C(=O)C(CCN1CCC(O)(c2ccc(Cl)cc2)CC1)(c1ccccc1)c1ccccc1 [Loperamide hydrochloride] | 0.9953 ± 0.0042 | 0.405 ± 0.032 | 1.017 ± 0.0058 | 0.87 ± 0.29 | 1 | 0.0171 ± 0.0045
